From the supplement of paper PMC3334620
Whole data set: some 33,000 sequences, median “E-score (-0.5 to 0.5)” near -0.041, cut for the highest 2% near 0.37. This is one part of the list.

Each sequence was assayed against T1, Ecm22 (UniProt Q05958) (assay: PBM E-score (8-mer binding enrichment) (E-score (-0.5 to 0.5)); higher = stronger / more preferred TF binding; most listed sequences are background and not binding sites). Conditions: protein concentration: 200 nM; construct: GST-full length.
T1 sequence: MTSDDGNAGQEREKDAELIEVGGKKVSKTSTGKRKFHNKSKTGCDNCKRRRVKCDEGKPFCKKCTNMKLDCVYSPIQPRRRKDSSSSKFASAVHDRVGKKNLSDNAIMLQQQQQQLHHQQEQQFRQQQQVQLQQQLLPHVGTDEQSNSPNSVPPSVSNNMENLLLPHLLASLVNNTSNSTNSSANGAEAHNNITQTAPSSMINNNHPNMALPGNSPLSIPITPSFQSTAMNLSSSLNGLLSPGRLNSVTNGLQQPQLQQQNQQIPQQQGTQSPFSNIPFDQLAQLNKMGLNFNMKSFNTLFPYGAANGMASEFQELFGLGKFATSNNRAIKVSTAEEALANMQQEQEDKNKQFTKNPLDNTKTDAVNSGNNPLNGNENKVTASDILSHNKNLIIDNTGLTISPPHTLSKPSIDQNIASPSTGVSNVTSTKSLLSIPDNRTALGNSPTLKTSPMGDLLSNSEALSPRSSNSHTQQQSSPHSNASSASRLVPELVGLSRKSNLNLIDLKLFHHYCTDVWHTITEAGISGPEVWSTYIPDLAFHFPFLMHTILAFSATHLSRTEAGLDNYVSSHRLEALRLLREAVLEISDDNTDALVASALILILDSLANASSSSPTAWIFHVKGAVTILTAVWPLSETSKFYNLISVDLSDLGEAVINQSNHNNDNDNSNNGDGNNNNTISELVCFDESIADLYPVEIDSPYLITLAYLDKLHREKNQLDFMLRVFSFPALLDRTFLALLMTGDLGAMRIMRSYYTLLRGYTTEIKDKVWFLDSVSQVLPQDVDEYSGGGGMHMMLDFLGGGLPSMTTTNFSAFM
Outline: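 E-scores (a modified Wilcoxon-Mann-Whitney statistic) were assigned by the Universal PBM Analysis Suite to every ungapped eight-base word pooled with its reverse complement. The input came from universal all-10-mer Agilent arrays made double-stranded by primer extension and probed with GST-tagged yeast transcription factors at about 100-200 nM. Fluorescent anti-GST detected bound protein, and masliner normalised the scans.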

| Sequence | PBM E-score |
| --- | --- |
| CAGACTTA | -0.151 |
| AGTAACAT | -0.0483 |
| ATGGACGC | -0.117 |
| AGACGTAG | -0.0478 |
| AGGGCACA | -0.0681 |
| GATCCTCA | -0.0376 |
| AGCATGAT | -0.184 |
| ATGCCAGC | -0.223 |
| CAGTCTCA | -0.26 |
| GGGATCCC | -0.0461 |
| CGCGAACG | 0.269 |
| AGCTGACC | -0.243 |
| CGGCCTCC | -0.0189 |
| GAATAGGC | -0.0883 |
| AAACGATC | 0.423 |
| ACCTACGC | -0.0909 |
| AAGGCCGA | -0.0674 |
| TGCCTGAA | -0.135 |
| AATCTCCG | -0.0637 |
| AGGAATAG | -0.117 |
| CTCCGATC | -0.17 |
| ACTCACAG | -0.253 |

| Sequence | PBM E-score |
| --- | --- |
| CTCGGCCC | 0.00167 |
| GCTGGAAA | -0.217 |
| CATTTCAA | -0.0917 |
| GAGGCATA | 0.0424 |
| AGTGCTTC | -0.0125 |
| AAAACTTC | 0.052 |
| GGGATGAA | -0.325 |
| ACTACTGA | -0.0877 |
| GAAGGTGA | -0.157 |
| AGCATTAC | 0.0473 |
| ATCGCCTC | 0.0614 |
| ATAAACCA | -0.0402 |
| AAAGTATC | 0.0687 |
| ACTGCCGG | -0.145 |
| CTAACATC | -0.15 |
| ACAAGGCT | -0.229 |
| TACGTCGA | 0.168 |
| CCACCGCG | 0.0904 |
| TACTCCGA | -0.0941 |
| AATCGTCC | 0.0602 |
| CCTGTCCA | -0.246 |
| CCAGTGAG | -0.323 |

| Sequence | PBM E-score |
| --- | --- |
| CCAGCCTC | -0.16 |
| GCGTTGGA | -0.212 |
| ATGAGCCC | -0.0731 |
| CTCATTCA | -0.198 |
| CATTATAC | 0.237 |
| AAACGGAC | 0.307 |
| GAGCCTGC | -0.0544 |
| CTTAAGAA | -0.0446 |
| AAGGCGCC | -0.037 |
| TCATGTCA | -0.187 |
| CCAAGTCC | -0.205 |
| TAAAGCCA | 0.0235 |
| CTGGGATC | -0.215 |
| GCCCGGAA | -0.0251 |
| CAGAATAG | 0.0984 |
| ACGTCCTG | -0.131 |
| GAAACGCC | 0.0403 |
| AGTTTCGG | 0.118 |
| TGCAGCAA | 0.186 |
| AGACAGGA | -0.0652 |
| CCGGGGGA | -0.218 |
| GAGGCATC | 0.0852 |

| Sequence | PBM E-score |
| --- | --- |
| ATCGCTGC | -0.119 |
| ATGCAATG | -0.132 |
| CAAGCTGA | -0.211 |
| GATGTTGA | -0.191 |
| CCCTGTGC | -0.0607 |
| CTTCCTTA | -0.079 |
| GGGGTTTA | -0.199 |
| AAGGGGCA | -0.216 |
| ACCCTACT | -0.215 |
| GCACAACC | -0.0938 |
| CTGATCTC | 0.00531 |
| CAAATCTC | 0.0679 |
| AAATGGGT | -0.0372 |
| ATTATGGA | -0.0323 |
| CAGTTGCC | -0.127 |
| TCTGACCA | -0.106 |
| CCTCGCAC | 0.298 |
| AGCGCTCG | -0.0561 |
| ACTCTGGG | -0.193 |
| AGCCGGCG | -0.0176 |
